According to PubChem BioAssay AID1457 (National Center for Advancing Translational Sciences (NCATS), 2008):
Hit rate of the full screen: of about 210,000 compounds, about 730 (0.35%) were called active. Inconclusive results, whose numbers are uncertain, are shown with a selection of clear calls. Calls follow the shape of the dose curve; as a rule, active = well fitted inhibition curve with a large enough effect; inconclusive = small, poorly fitted or top-dose-only effect; inactive = no such curve, though single readings can be large or run the other way. Potencies of inconclusive entries are doubtful fits and often do not repeat.

Assay: qHTS Assay for Identifying the Cell-Membrane Permeable IMPase Inhibitors: Potentiation with Lithium; also: nearly all actives have a fitted effect of over 50% in size;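 as to activity, negative = IMPase inhibition: plate controls were basal vehicle for no effect and high inhibitor control for full effect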
Conditions: CHO-M1 cells, IP1 TR-FRET (IP-One), carbachol + lithium; series mostly up to 59.4 µM; activity, negative = IMPase inhibition: at the top concentration
Summary of the method: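 CHO cells stably expressing M1 receptor (2000/well) were cultured 16–30 h, then exposed to compounds with a small lithium addition for 30 min at 37C. IP1 was measured by TR-FRET competition; AC50 from Hill fits.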
Potency is read from the fitted curve at half-maximal effect.

| Compound | Potency | activity, negative = IMPase inhibition |
| --- | --- | --- |
| Cc1cccc2cc(C#N)c(SCC(=O)NCc3cccs3)nc12 | active: 7.94 µM | – |
| Cc1cccc2cc(C#N)c(SCC(=O)NNC(=O)Cc3ccccc3)nc12 | inconclusive: 11.2 µM [inhibitor, single point] | – |
| O=S(=O)(Nc1nc2ccccc2nc1Cl)c1ccc2c(c1)OCCO2 | inconclusive: 11.2 µM [inhibitor, partial curve] | – |
| Cc1nc2ccccc2c(=O)n1NC(=O)c1ccc(F)cc1Cl | – | inactive: 20.2% [at 38.3 µM] |
| COc1ccc(OCCC(=O)Nc2cc(C)on2)cc1 | – | inactive: 4.76% [at 38.3 µM] |
| COCCn1c(=NC(=O)c2ccco2)sc2cc(C(=O)OC)ccc21 | inconclusive: 28.2 µM [inhibitor, single point] | – |
| COC(=O)c1c(-c2ccc(F)cc2)csc1NC(=O)c1ccco1 | inconclusive: 28.2 µM [inhibitor, single point] | – |
| Cc1c(C(=O)Nc2ccc(Cl)cc2)c2ccccn2c1C(=O)c1ccccc1 | inconclusive: 22.4 µM [inhibitor, single point] | – |
| N#Cc1ccc(-c2ccc(F)cc2)nc1Sc1ccc(F)cc1 | inconclusive: 28.2 µM [inhibitor, single point] | – |
| COc1ccc(-c2c(C(C)=O)c(C)nc3sc4c(c23)NC(c2ccccc2)NC4=O)cc1 (stereo unspecified) | inconclusive: 22.4 µM [inhibitor, single point] | – |
| Cc1nc(SCC(=O)Nc2ccc(F)cc2)c(C#N)c(C)c1CC(=O)c1ccc(Br)cc1 | inconclusive: 15.8 µM [inhibitor, single point] | – |
| CC(=O)c1ccc(S(=O)(=O)N2CCCCC2C(=O)O)cc1 (stereo unspecified) | inconclusive: 3.16 µM [inhibitor, single point] | – |
| COC(=O)c1sc(NC(=O)COc2ccccc2C)nc1C | inconclusive: 31.6 µM [inhibitor, single point] | – |
| O=S(=O)(Nc1nc2cc3c(cc2nc1Cl)OCCO3)c1ccccc1 | inconclusive: 11.2 µM [inhibitor, partial curve] | – |
| c1ccc(C2=NN(c3ccccc3)C(c3ccco3)C2)cc1 (stereo unspecified) | inconclusive: 22.4 µM [inhibitor, single point] | – |
| CCCC(=O)c1ccc(N2CCN(S(=O)(=O)c3ccccc3)CC2)c(F)c1 | – | inactive: 7.68% [at 38.3 µM] |
| O=C(O)c1ccc2cccc(Cl)c2c1O | inconclusive: 11.2 µM [inhibitor, single point] | – |
| S[C@@H]1CCCN(Cc2ccccc2)C1 | – | inactive: -2.53% |
| CCC/C=N/NC(=O)c1[nH]c2c([N+](=O)[O-])cccc2c1C | – | inactive: -3.88% |
| Cc1nnc(N2C(=O)C(O)=C(C(=O)c3ccco3)C2c2ccc(F)cc2)s1 (stereo unspecified) | inconclusive: 11.2 µM [inhibitor, single point] | – |
| Fc1ccc(-c2nc3ccccc3c3nc4ccccc4n23)cc1 | inconclusive: 28.2 µM [inhibitor, single point] | – |
| COC(=O)CSc1nnc2n1C(C)(C)Cc1ccccc1-2 | inconclusive: 0.355 µM [inhibitor, full curve, poor fit] | – |
| CC1CN(c2nc3ccccc3cc2-c2ccccc2)CC(C)O1 (stereo unspecified) | inconclusive: 2 µM [inhibitor, partial curve] | – |

| Compound | Potency | activity, negative = IMPase inhibition |
| --- | --- | --- |
| COc1ccc(Cn2c(C)nnc2-c2cnn(C)c2N)cc1OC | inconclusive: 12.6 µM [inhibitor, single point] | – |
| NC(=S)n1[nH]c(-c2ccc([N+](=O)[O-])cc2)c(N=Nc2ccc(Cl)cc2)c1=O | – | inactive: 23% |
| CC(C)(C)C(=O)c1cnc(Nc2ccccc2)s1 | inconclusive: 2.82 µM [inhibitor, partial curve] | – |
| O=C(CCc1ccccc1)NCC(=O)N/N=C/c1ccc2c(c1)OCO2 | – | inactive: -0.386% |
| COc1ccc(CCNC(=O)c2c(O)c3c([nH]c2=O)CCCC3)cc1 | inconclusive: 28.2 µM [inhibitor, single point] | – |
| COc1ccc(CCNC(=O)COc2ccc(-c3ccccc3)cc2)cc1OC | active: 10 µM | – |
| Cc1cccc(Cc2nnc(NC(=O)c3cccc(S(=O)(=O)N4CCOCC4)c3)s2)c1 | inconclusive: 14.1 µM [inhibitor, single point] | – |
| CCOC(=O)c1c(NC(=O)Cc2cccs2)sc(C(=O)NC2CCCC2)c1C | inconclusive: 22.4 µM [inhibitor, single point] | – |
| COc1cc(C(=O)OCc2cc3ccccc3[nH]c2=O)cc(OC)c1OC | inconclusive: 28.2 µM [inhibitor, single point] | – |
| CCCC(=O)Nc1ccc2c(c1)nc(CN1CCN(C(C)=O)CC1)n2C | – | inactive: -5.26% [at 38.3 µM] |
| O=C(CSc1nnc(CNC(=O)c2c(F)cccc2Cl)o1)NCc1ccc2c(c1)OCO2 | – | inactive: -4.43% [at 38.3 µM] |
| COc1cc(NC(=O)CSc2ncnc3c2cnn3Cc2ccccc2)cc(OC)c1 | – | inactive: 7.36% [at 38.3 µM] |
| O=C(NCc1ccccc1Cl)C1CCCN(c2nc3ccsc3c(=O)s2)C1 (stereo unspecified) | inconclusive: 28.2 µM [inhibitor, single point] | – |
| N#CCCSc1ncnc2c1oc1ccccc12 | active: 11.2 µM | – |
| COc1cccc(C2C(C(=O)c3sc(C)nc3C)=C(O)C(=O)N2CCN2CCOCC2)c1 (stereo unspecified) | inconclusive: 10 µM [inhibitor, partial curve] | – |
| CCOC(=O)c1cccc(NC(=O)CCS(=O)(=O)c2ccc(Br)s2)c1 | inconclusive: 28.2 µM [inhibitor, single point] | – |
| COCCCn1cnc2c(c1=O)c1nc3ccccc3nc1n2-c1ccccc1 | inconclusive: 22.4 µM [inhibitor, single point] | – |
| COc1ccc(Cn2c(=S)[nH]c3cc(OC)c(OC)cc3c2=O)cc1 | inconclusive: 28.2 µM [inhibitor, single point] | – |
| Cc1nn(C)c(C)c1C1Nc2ccccc2C(=O)N1O (stereo unspecified) | – | inactive: -6.63% |
| O=C(Nc1cccc2[nH]ncc12)c1ccc(F)cc1 | inconclusive: 1.26 µM [inhibitor, full curve, poor fit] | – |
| COc1ccccc1CNc1nc(-c2ccoc2)nc2ccccc12 | – | inactive: 2.92% |
| Cc1cccc(-n2c(SCC(=O)N3CCCC3)nc3n[nH]c(C)c3c2=N)c1 | inconclusive: 28.2 µM [inhibitor, single point] | – |
| Cc1ccc(Cn2c(N)c(S(=O)(=O)c3cccs3)c3nc4ccccc4nc32)cc1 | inconclusive: 28.2 µM [inhibitor, single point] | – |
